Data: the supplement of paper PMC3334620
The full ranking holds about 33,000 sequences; the median of “E-score (-0.5 to 0.5)” is about -0.032, and the highest 2% start at about 0.36. The list shows a part of the results.

biological target: T1, Sko1 (UniProt Q02100); assay: PBM E-score (8-mer binding enrichment) (E-score (-0.5 to 0.5)); higher = stronger / more preferred TF binding; most listed sequences are background and not binding sites; settings: protein concentration: 200 nM; construct: GST-full length
T1 sequence: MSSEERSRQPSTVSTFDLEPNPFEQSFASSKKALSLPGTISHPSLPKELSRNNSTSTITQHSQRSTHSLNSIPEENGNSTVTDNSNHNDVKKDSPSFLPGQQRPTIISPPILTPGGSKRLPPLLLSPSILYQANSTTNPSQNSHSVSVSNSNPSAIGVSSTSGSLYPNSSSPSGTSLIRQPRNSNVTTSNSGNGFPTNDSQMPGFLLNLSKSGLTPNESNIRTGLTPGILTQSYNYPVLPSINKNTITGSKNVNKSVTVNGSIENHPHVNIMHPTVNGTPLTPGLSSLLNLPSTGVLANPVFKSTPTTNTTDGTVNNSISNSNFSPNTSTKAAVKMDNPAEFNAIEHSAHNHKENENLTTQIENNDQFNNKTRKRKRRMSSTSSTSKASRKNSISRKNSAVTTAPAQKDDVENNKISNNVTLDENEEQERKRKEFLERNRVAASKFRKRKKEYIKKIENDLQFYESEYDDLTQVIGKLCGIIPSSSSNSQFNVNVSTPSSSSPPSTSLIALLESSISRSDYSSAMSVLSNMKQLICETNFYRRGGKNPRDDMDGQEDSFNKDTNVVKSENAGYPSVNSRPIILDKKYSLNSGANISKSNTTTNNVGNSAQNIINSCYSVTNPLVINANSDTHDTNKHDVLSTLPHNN
Outline: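 Yeast transcription factors carrying a GST tag, as full-length proteins or DNA-binding domains, were produced by PURExpress in vitro transcription/translation. About 100-200 nM protein was applied to universal all-10-mer Agilent arrays, double-stranded by primer extension on fresh or once-stripped slides. Bound protein was detected with fluorescent anti-GST, and scans were normalised with masliner. The Universal PBM Analysis Suite gave each ungapped eight-base word, pooled with its reverse complement, an E-score, a modified Wilcoxon-Mann-Whitney statistic.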

Sequence	PBM E-score
CCCTTTTC	-0.124
CTCGGGGC	-0.304
AGAATCCC	-0.0186
ATTGCTCC	-0.24
CACAACAC	0.0806
CAGTCCGG	-0.347
CATAGGCG	-0.169
TACACCTA	0.0535
GTATAGCA	0.264
CCTTCCAA	-0.11
GGGCAAAA	-0.143
GCTAGAGC	-0.0879
GAACGCTA	-0.0985
GCAGGGAC	-0.175
ACGGGCAT	-0.202
CCGGTGCC	-0.189
AACCCGGA	-0.248
ATGCCATC	0.0604
ACCTAGCC	-0.21
AGGCTGTG	-0.209
GTTCAGTA	0.163
ACGCGGTA	0.0969
GCATATAC	0.0862
AACAGACC	0.0572
CAACTCTG	-0.161

Sequence	PBM E-score
CTCGGATC	-0.0845
CGTTATCC	0.173
CCTGACCG	-0.294
AAAGATTT	0.0922
CATTCGCC	-0.112
CCCAAAAA	-0.143
TAATCGTA	0.334
AGAGGATC	-0.159
TCCTGAGA	-0.00979
AAGTAATA	0.104
CCGCCTAC	0.00758
ACCTAATG	0.054
GCACACAC	-0.054
GTCCACAA	0.0551
CCAAGAAC	-0.126
AGTTCAAT	0.066
TTAGCTAA	0.226
ACTACAAA	0.177
ATTGCGTG	0.419
ACGATCCG	-0.216
CGGTCCGC	-0.276
ACCACAAG	-0.236
ATGTCGAG	-0.124
GGTCGAGA	-0.223
CACCTACA	-0.02

Sequence	PBM E-score
ATTAGATC	0.19
GCAAGCTA	0.0116
AACTGACT	-0.0679
GCGTACAC	0.213
ATCGGATG	-0.12
CTTGCAGC	-0.128
AACGTAAG	0.397
GATTCTGA	0.146
CAATACTG	-0.165
ATCTTTAC	0.217
ACTCTACT	0.0326
ACGACGAA	0.25
AGAGAAGA	0.0948
CCCCCAGA	-0.311
TTGAAAAA	0.193
AAAGTCTT	0.0148
AACTTATG	0.19
CGTAATTC	0.435
CACCCAAC	-0.22
ATTGCGTC	0.414
ACTTGCAG	-0.0878
CTTAACCC	-0.19
ATAAGCTA	0.194
CGCCAGTC	-0.208
ACCTACTC	-0.00224

Sequence	PBM E-score
AGCCGGCC	-0.246
AAGCTTGA	-0.122
AAGTCAGA	-0.178
CACGGTCA	-0.0828
GCCCAAAC	-0.16
AGTATGTC	0.213
GAAATATC	0.0141
AAAGAGAA	0.078
ACCAACAA	0.147
CCCTTTCC	-0.252
AGGTAACT	0.0427
CCTCAAGA	-0.138
ATGGCCAG	-0.0993
AGCGAAAA	-0.00017
TCAACGAA	0.127
CTTGTTTA	0.0536
ACTTTCCC	-0.0503
AACGCGGT	-0.0313
CAATCTTA	0.137
GTATGCCA	-0.0206
ACCAGCGG	-0.224
ACCTTGCA	-0.213
CCGTGATC	-0.255
ACATGGCT	-0.131
ATGGATTA	-0.0995

Sequence	PBM E-score
AGTTGGTG	-0.0352
CCTCATAA	0.201
CCACCGGA	-0.137
ACAACCAC	0.077
GCGGCGAC	-0.221
ATCATTGC	0.191
TGATACCA	0.141
CTTCGGAC	-0.0397
AGACAAGC	-0.00534
AAACGCTC	-0.0073
CGTAGCAC	0.295
GAGAGATC	-0.0164
AATTGGGT	0.12
TCGATGCA	-0.0881
AAATCGAC	0.0539
ATCGCCCA	-0.261
CTGACGTC	0.482
AGCCGGCG	-0.133
TCCGTAAA	-0.0256
GTAGAGCA	-0.125
ACACGACA	0.199
ACAACGAT	0.0479
CAGGCCGA	-0.182
CCCTCGGA	-0.188
CTTCTCAC	-0.102

Sequence	PBM E-score
CGACCCAG	-0.181
TCTGACCA	0.0416
CCTCGCAC	0.00642
ACTCTGGG	-0.192
AGCGCTCG	-0.31
CAAGCTGA	-0.0925
CTTCCTTA	0.0568
CCCTGTGC	-0.174
GATGTTGA	0.148
ACCCTACT	-0.0914
AAGGGGCA	-0.275
GGGGTTTA	-0.235
CAGTTGCC	0.0837
ATTATGGA	0.173
AAATGGGT	0.104
CAAATCTC	-0.0604
CTGATCTC	-0.0913
GCACAACC	-0.219
AGTTTCGG	-0.0342
GAAACGCC	0.145
TGCAGCAA	0.0131
GAGGCATC	-0.0198
AGACAGGA	-0.00599
CCGGGGGA	-0.461
ATGCAATG	0.159

Sequence	PBM E-score
ATCGCTGC	-0.0434
CTTAAGAA	0.145
AAACGGAC	-0.0384
GAGCCTGC	-0.228
CATTATAC	0.192
CTCATTCA	0.0229
ATGAGCCC	-0.326
GCGTTGGA	-0.00317
CCAGCCTC	-0.238
TAAAGCCA	0.103
CCAAGTCC	-0.282
TCATGTCA	0.306
AAGGCGCC	-0.333
CTGGGATC	-0.184
CAGAATAG	-0.0348
ACGTCCTG	0.181
GCCCGGAA	-0.31
ACAAGGCT	-0.192
CTAACATC	0.0802
TACTCCGA	-0.246
CCACCGCG	-0.00103
TACGTCGA	0.422
CCAGTGAG	-0.193
CCTGTCCA	-0.401
AATCGTCC	0.0937

Sequence	PBM E-score
CGATGCCC	-0.187
ATTGGAGA	0.0978
AATTGGAA	0.0969
CGGTGCGA	0.0547
CCAGACGG	-0.364
ACAACTCA	0.00058
AATTCGAT	0.116
ACGTGGGA	0.313
GTACTCAA	0.0529
AGGCTATC	-0.0942
AGAGGTTA	-0.0283
AATCACCG	-0.0938
AATAGGAA	0.086
CCGCTATA	0.0771
TGCCGAAA	-0.0554
GTAGCCAA	-0.019
CCAGAGAG	-0.331
CGCTGGCC	-0.32
CGAGAGTA	0.0833
AGCAGCTG	-0.136
CGACAGTC	-0.185
AGTATAAG	0.113
GTAGGCGA	-0.0929
AAACCGTT	-0.145
ATAAGATA	0.161

Sequence	PBM E-score
CAGTGTGC	-0.314
CAGAGTGA	0.00479
ACACTCCG	-0.0952
AGGATGGC	-0.142
CTCATTGA	-0.0333
AAGACCAC	-0.174
AACTCGAT	0.109
CGATAACG	0.257
ACCAAAAT	0.0116
CATGCATC	-0.0481
CTCAAGTA	0.0258
ACCCCGGC	-0.174
ACCCCCCC	-0.378
CAGATACA	0.211
AGGCCAGC	-0.155
GATAACGC	0.0841
CCTGCGGA	-0.161
TAGGTACA	-0.00865
CAACATCA	0.294
CGCTGCCA	-0.127
ACGTTTAT	0.388
AGCAGACG	-0.12
GTCTTTGA	0.066
CCACGATC	0.141
GATGAGGA	-0.0131

Sequence	PBM E-score
AGGCGTTC	-0.217
ATTCGAGC	0.107
GTATGAAA	0.211
TATAGACA	0.0561
GGATTGAA	0.0807
GGGGGTAA	-0.183
ACAGGGTA	-0.108
AAGTAACG	0.0665
GGGGGGGA	-0.38
AAGTTAGT	0.102
GGGGACAA	-0.194
CACGAGTA	0.0469
AACTACTG	-0.131
GAATACGA	0.259
TCACATGA	0.135
ATGGATAG	-0.0813
ATAGACAA	0.108
AGTTGCGC	-0.102
AACAGGGT	-0.192
CCCCTGCC	-0.196
ATAGCCTA	-0.0632
ATAACGGA	0.0991
AGGCTTAT	-0.0415
GTCTTAGA	0.0308
CGTGCAAC	0.0822

Sequence	PBM E-score
AATACAGG	-0.0789
GCTGCTAA	-0.197
GTTGGCTA	-0.108
ACGCGCCC	0.00867
AACAGATC	0.0098
GGGTTACC	-0.211
CCATTATC	0.0338
CCAGTCCG	-0.352
TAATCAGA	0.0523
CATTTCAC	-0.00575
GCCCTCAC	-0.217
CTCCGCAC	-0.165
CATCTGCC	-0.292
AACTGCTC	-0.113
CCTGGGGC	-0.371
ACATGAAT	0.229
CGCTCTCC	-0.163
CCCCTCCA	-0.144
ACGATGGG	-0.0319
CTATAACA	-0.0202
AGATTCCC	-0.101
ATACGCGG	-0.00698
AGGGACTG	-0.281
ACGATTAG	0.198
GTGTTTAA	0.0721

Sequence	PBM E-score
GCAAAAGA	-0.131
ATAGCCCG	-0.199
AAGTGATT	0.0606
ATTCCTCC	-0.111
CTAACGAA	0.0318
GGGTGAAC	-0.114
CTGTTCGA	-0.13
ATAGACCG	-0.0315
CTGTTGCC	-0.307
GACTTTTA	0.0964
CTTCGCTC	-0.0824
GGTTAATA	-0.01
CAGCTGGG	-0.308
CTGCCGTC	-0.12
GAAATCCA	0.0564
AGACTACC	-0.0734
ATCAAACC	0.0551
GCATAGCC	-0.157
AACGAGTA	0.0927
CGTGGATA	0.0696
AGCACACT	-0.0868
AAGCGGTC	-0.2
ATCCAGTC	-0.13
GCGGTACA	-0.112
ACGTTCAG	0.0463

Sequence	PBM E-score
ATCAGATC	-0.0621
CAATTGTA	0.00515
ACAACCCC	-0.221
GATGGTAC	-0.0113
CCTTAGCC	-0.207
TCTAAAGA	0.101
ACGGGCAC	-0.112
AACCTTAT	-0.164
ACTCCGGA	0.0861
CCAGTCAA	-0.146
AACGGATA	0.151
AATAGATC	0.0397
CGCGAGGC	-0.172
ATGCGAAT	0.103
AATAATGA	0.182
GAAAATGA	0.17
AGACCAAG	-0.0941
ACCGGTAC	-0.232
GAATGCAA	0.0942
CGATAAGC	-0.219
TGGAGGAA	-0.201
AGATAGGG	-0.14
CGATTCTA	-0.0581
CTGCCAAA	0.0757
CTACCGCC	-0.293

Sequence	PBM E-score
AAAAGTCC	-0.0224
AAGAAGGT	-0.0729
AGTCCACT	-0.213
AGAAGGCC	-0.163
AAGAACGG	-0.289
AAGTCATC	0.0763
ATTGCAAG	-0.0657
AAGGCTAT	-0.15
AGGCAGAA	-0.0954
CCCGAAAG	-0.114
CATGTGGC	-0.0269
AGATCACA	-0.0686
CTAGCCGC	-0.185
CCACTTAC	0.173
AGAGATCC	-0.156
GGCGCGCC	-0.112
ACTACAAT	0.172
ATAACACG	0.172
ATTTCCCA	0.118
